Laboratory results from a collection of fitness landscapes (doi:10.1126/science.1257360).
Some of the results follow.

B1: PhoQ; a variant is named by its letters at X, in order, P23837 (parent)
chain: MKKLLRLFFPLSLRVRFLLATAAVVLVLSLAYGMVALIGYSVSFDKTTFRLLRGESNLFYTLAKWENNKLHVELPENIDKQSPTMTLIYDENGQLLWAQRDVPWLMKMIQPDWLKSNGFHEIEADVNDTSLLLSGDHSIQQQLQEVREDDDDAEMTHSVAVNVYPATSRMPKLTIVVVDTIPVELKSSYMVWSWFIYVLSANLLLVIPLLWVAAWWSLRPIEALAKEVRELEEHNRELLNPATTRELTSLVRNLNRLLKSERERYDKYRTTLTDLTHSLKTPLXXLQXXLRSLRSEKMSVSDAEPVMLEQISRISQQIGYYLHRASMRGGTLLSRELHPVAPLLDNLTSALNKVYQRKGVNISLDISPEISFVGEQNDFVEVMGNVLDNACKYCLEFVEISARQTDEHLYIVVEDDGPGIPLSKREVIFDRGQRVDTLRPGQGVGLAVAREITEQYEGKIVAGESMLGGARMEVIFGRQHSAPKDE

Variants of: B1
Test: enrichment ratio after two sorts for PhoP signalling (ratio (wild type AVST 3.29)); higher = more functional
Settings: with PhoP (E. coli)

Variant | enrichment ratio
EMYF | ≤ 0.25
TEWI | 4.93
TPKY | ≤ 0.25
RCGM | ≤ 0.25
WPAG | ≤ 0.25
TLQG | 11.8
MHWQ | ≤ 0.25
VLIH | ≤ 0.25
SWWV | ≤ 0.25
ARHF | ≤ 0.25
AYYW | ≤ 0.25
IQWL | ≤ 0.25
LLHY | ≤ 0.25
YWHN | ≤ 0.25
TFCW | ≤ 0.25
ALVR | ≤ 0.25
DRVV | ≤ 0.25
AHSL | 0.581
GNVM | 22.8
WQNH | ≤ 0.25
KFRR | ≤ 0.25
HDPK | ≤ 0.25
VDDV | ≤ 0.25
FKSL | ≤ 0.25

Variant | enrichment ratio
LEVG | ≤ 0.25
DAKV | ≤ 0.25
GPMN | ≤ 0.25
AGSW | ≤ 0.25
FKLR | ≤ 0.25
MWLS | ≤ 0.25
KAWM | ≤ 0.25
AQTY | 1.32
VQCI | ≤ 0.25
QCRV | ≤ 0.25
HRAC | ≤ 0.25
YQRM | ≤ 0.25
KEVA | ≤ 0.25
SQTI | 13.3
YIYW | ≤ 0.25
HVGF | ≤ 0.25
HRFH | ≤ 0.25
VKED | ≤ 0.25
HQMS | ≤ 0.25
VHQE | ≤ 0.25
YEFK | ≤ 0.25
NVAV | ≤ 0.25
RNHF | ≤ 0.25
ALCS | 10.8

Variant | enrichment ratio
PDRH | ≤ 0.25
TRKF | ≤ 0.25
HIGR | ≤ 0.25
ADSH | ≤ 0.25
AEIH | 60.7
HSEA | ≤ 0.25
AWNW | ≤ 0.25
PEAN | ≤ 0.25
AWDD | ≤ 0.25
HMST | ≤ 0.25
WWFL | ≤ 0.25
FYKV | ≤ 0.25
TIGK | 6.72
FRTC | ≤ 0.25
KNVP | ≤ 0.25
KHHR | ≤ 0.25
HCAG | ≤ 0.25
RDVM | ≤ 0.25
HHPL | 0.388
VLDM | ≤ 0.25
HSMT | ≤ 0.25
FWEY | ≤ 0.25
IHWG | ≤ 0.25
RCFS | ≤ 0.25

Variant | enrichment ratio
WYYW | ≤ 0.25
LLER | ≤ 0.25
SHYG | ≤ 0.25
VHPE | ≤ 0.25
GIGS | ≤ 0.25
MYKN | ≤ 0.25
MFIE | ≤ 0.25
DTCY | ≤ 0.25
LVPS | ≤ 0.25
NGGN | ≤ 0.25
TTAL | 18.4
VIAM | ≤ 0.25
SREP | ≤ 0.25
RYRV | ≤ 0.25
EQRY | ≤ 0.25
RYQQ | ≤ 0.25
YATA | ≤ 0.25
IEWF | ≤ 0.25
DASC | ≤ 0.25
WTVG | ≤ 0.25
NNNT | ≤ 0.25
SQSH | 6.55
LMNT | ≤ 0.25
STME | 8.24

Variant | enrichment ratio
MVRM | ≤ 0.25
VEDA | ≤ 0.25
RDCT | ≤ 0.25
NKSI | ≤ 0.25
PFQT | ≤ 0.25
AMNH | ≤ 0.25
GMQI | 0.253
KVKD | ≤ 0.25
EQVV | ≤ 0.25
PIFA | ≤ 0.25
NMNP | ≤ 0.25
RSLI | ≤ 0.25
VDCQ | ≤ 0.25
YHNH | ≤ 0.25
RMKF | ≤ 0.25
DMHG | ≤ 0.25
MYTR | ≤ 0.25
KARL | ≤ 0.25
SRHS | ≤ 0.25
TAFL | 1.44
MNFC | ≤ 0.25
FIRY | ≤ 0.25
ISWQ | ≤ 0.25
DPTE | ≤ 0.25

Variant | enrichment ratio
MSVN | ≤ 0.25
AHPE | ≤ 0.25
KGTM | ≤ 0.25
RPGS | ≤ 0.25
LETF | ≤ 0.25
ALGY | ≤ 0.25
TPSL | ≤ 0.25
FRYF | ≤ 0.25
QKDN | ≤ 0.25
WDKA | ≤ 0.25
IIWA | ≤ 0.25
VYQK | ≤ 0.25
PEHK | ≤ 0.25
VKIM | ≤ 0.25
HIMK | ≤ 0.25
QYWT | ≤ 0.25
IVAA | ≤ 0.25
KYWC | ≤ 0.25
KSSH | ≤ 0.25
DILN | ≤ 0.25
KAQN | ≤ 0.25
MMDN | ≤ 0.25
SWQD | ≤ 0.25
NVIW | ≤ 0.25

Variant | enrichment ratio
NGFH | ≤ 0.25
HMIP | ≤ 0.25
QNEP | ≤ 0.25
KNQA | ≤ 0.25
TKNM | 31.9
NSSQ | ≤ 0.25
SALE | 6.77
ILYT | ≤ 0.25
TADC | 0.543
KQGG | ≤ 0.25
KCEQ | ≤ 0.25
GLSK | ≤ 0.25
DGSQ | ≤ 0.25
GRAS | ≤ 0.25
EKRP | ≤ 0.25
GSGT | ≤ 0.25
IAIF | ≤ 0.25
WQPR | ≤ 0.25
ASVK | 0.907
QLIK | ≤ 0.25
ATIH | 25.3
FGYC | ≤ 0.25
WRLD | ≤ 0.25
PKRP | ≤ 0.25

Variant | enrichment ratio
AMIS | ≤ 0.25
DDAN | ≤ 0.25
LGQY | ≤ 0.25
KPAI | ≤ 0.25
LADP | ≤ 0.25
RGPR | ≤ 0.25
YTVV | 0.375
SKPR | ≤ 0.25
QFIY | ≤ 0.25
YCCR | ≤ 0.25
NFGG | ≤ 0.25
YFPQ | ≤ 0.25
NHVF | ≤ 0.25
SGTC | 8.42
HPYH | ≤ 0.25
TIVP | ≤ 0.25
DSFN | ≤ 0.25
PIKH | ≤ 0.25
TWQR | ≤ 0.25
PCMI | ≤ 0.25
NMRA | ≤ 0.25
PRQW | ≤ 0.25
GLKN | ≤ 0.25
FWQR | ≤ 0.25

Variant | enrichment ratio
EVHH | ≤ 0.25
WKMR | ≤ 0.25
RQVY | ≤ 0.25
RQMD | ≤ 0.25
EIAF | ≤ 0.25
DPTS | ≤ 0.25
VPCR | ≤ 0.25
SQCS | 14.7
IVLW | ≤ 0.25
EGYL | ≤ 0.25
FVTR | 0.369
VGWQ | 1.18
GNCS | 7.94
NPRG | ≤ 0.25
NYTW | ≤ 0.25
TEAF | 13.8
PCQN | ≤ 0.25
GNLQ | 5.83
FKIQ | ≤ 0.25
PYYS | ≤ 0.25
PATT | ≤ 0.25
RVRC | ≤ 0.25
IPPD | ≤ 0.25
LVES | ≤ 0.25

Variant | enrichment ratio
YLNS | ≤ 0.25
ANNH | 4.48
VNYT | ≤ 0.25
ATRR | ≤ 0.25
FKEF | ≤ 0.25
YNFL | ≤ 0.25
LFRH | ≤ 0.25
PCMT | ≤ 0.25
TSPE | ≤ 0.25
AFRL | ≤ 0.25
QPTP | ≤ 0.25
RLSR | ≤ 0.25
VTGM | ≤ 0.25
IGPR | ≤ 0.25
YALQ | 4.04
KGPE | ≤ 0.25
DCQV | ≤ 0.25
WVFN | ≤ 0.25
WEVP | ≤ 0.25
KSVG | ≤ 0.25
TNEL | ≤ 0.25
HMDD | ≤ 0.25
AYKT | ≤ 0.25
WCRW | ≤ 0.25

Variant | enrichment ratio
NISM | 0.899
EDHY | ≤ 0.25
LMSE | ≤ 0.25
KSYY | ≤ 0.25
HLCT | ≤ 0.25
RFDR | ≤ 0.25
DQDG | ≤ 0.25
WMRP | ≤ 0.25
QWVY | ≤ 0.25
YPQH | ≤ 0.25
NQDC | ≤ 0.25
SHNT | 1.57
GYPQ | ≤ 0.25
FCVL | 0.336
YGFD | ≤ 0.25
VFIQ | ≤ 0.25
LVMN | ≤ 0.25
NYWF | ≤ 0.25
LTQW | ≤ 0.25
RGSD | ≤ 0.25
MKTP | ≤ 0.25
VMNM | ≤ 0.25
YLWL | ≤ 0.25
PRNA | ≤ 0.25

Variant | enrichment ratio
IVED | ≤ 0.25
IYAQ | ≤ 0.25
LTLM | 2.03
RIPV | ≤ 0.25
LKVG | ≤ 0.25
DYHW | ≤ 0.25
KSAI | ≤ 0.25
TPYN | ≤ 0.25
SQFI | ≤ 0.25
HLPR | ≤ 0.25
IHEV | ≤ 0.25
KTQE | ≤ 0.25
RDCI | ≤ 0.25
QFFM | ≤ 0.25
IHEG | ≤ 0.25
RLTT | ≤ 0.25
IESN | ≤ 0.25
VLSE | ≤ 0.25
DSAW | ≤ 0.25
AQRY | ≤ 0.25
NLRG | ≤ 0.25
FLQT | ≤ 0.25
MYEG | ≤ 0.25
AIPQ | ≤ 0.25

Variant | enrichment ratio
QSFR | 0.584
IIDT | ≤ 0.25
DKLI | ≤ 0.25
RRPS | ≤ 0.25
MEHY | ≤ 0.25
QYAM | ≤ 0.25
NISD | ≤ 0.25
WRTY | ≤ 0.25
TYSL | 3
KMDY | ≤ 0.25
DKWM | ≤ 0.25
LFVQ | ≤ 0.25
KIDF | ≤ 0.25
YWYQ | ≤ 0.25
VKVI | ≤ 0.25
GELH | 11.9
TGCV | 7.81
TLCE | ≤ 0.25
